{"source": "the supplement of paper PMC11417369", "note": "The list shows a part of the results.", "data": [{"tested_on": "PfHDP1 homeodomain (GST-tagged)", "assay": "gcPBM binding intensity (ln(normalized median fluorescence intensity)); higher = stronger DNA binding", "how_it_was_run": "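Each value is the highest Masliner-normalised natural-log median intensity across replicate spots of either orientation of a probe. The probes were primer-extended double-stranded 36-bp intergenic genomic sequences on an Agilent 4 × 180k array, alongside negative controls, exposed for 1 h to GST-tagged P. falciparum DNA-binding domains expressed in E. coli. Bound protein was picked up with Alexa488 anti-GST antibody and scanned at 488 nm.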", "values": [{"sequence": "TATATAGGTATCATTACACACATGTATACTTATTTG [CACACA_site7864]", "gcPBM binding intensity (ln)": 6.47}, {"sequence": "CATATAAATAAATACACACACACACGCCTTATAATT [CACACA_site7830]", "gcPBM binding intensity (ln)": 6.96}, {"sequence": "TATTTAAGAATATGAAGTACATATATTATTTAAAAA [XGTACX_site7897]", "gcPBM binding intensity (ln)": 6.07}, {"sequence": "CCTAAAAAAAAGAAATGATATACATATGTATATATA [GTGCAC_negctrl_site100]", "gcPBM binding intensity (ln)": 6.54}, {"sequence": "TTTTTCTTTCTCTATTGTACACATGGAAACACATAA [XGTACX_site4601]", "gcPBM binding intensity (ln)": 7.56}, {"sequence": "TCTTGTTTTCAAATATGTACATAGAATAGACATTTT [XGTACX_site684]", "gcPBM binding intensity (ln)": 6.54}, {"sequence": "AAATATATAAAATATACACACAGTAATATATATATA [CACACA_site1385]", "gcPBM binding intensity (ln)": 8.58}, {"sequence": "AAGTTTTATTTAAATTGTACTAAAATTTTTATATTA [XGTACX_site7065]", "gcPBM binding intensity (ln)": 6.61}, {"sequence": "ATAAAATGAACAAACACACACACATATATATATATA [CACACA_site2402]", "gcPBM binding intensity (ln)": 9.22}, {"sequence": "TATATATAAATATTCAGTACATAGTATTATTAAGTA [XGTACX_site1980]", "gcPBM binding intensity (ln)": 6.17}, {"sequence": "AAAAATATGTCCATGAAAAGGATAGGCAGGTAATCA [XGTACX_negctrl_site93]", "gcPBM binding intensity (ln)": 6.64}, {"sequence": "AAAAATTAAATAAATTTACACACTAATAATTACATA [CACACA_site8260]", "gcPBM binding intensity (ln)": 6.3}, {"sequence": "AAATATATTTTACATTGTACATGAATAAACTATAAA [XGTACX_site2080]", "gcPBM binding intensity (ln)": 6.53}, {"sequence": "ACGTTAAAATATTGGGTGCTAACACAATAAAAATAA", "gcPBM binding intensity (ln)": 6.56}, {"sequence": "TACAATTTTTTAAATGCACACAAAAGGAATAAATAA [CACACA_site8075]", "gcPBM binding intensity (ln)": 9.88}, {"sequence": "AAAAGCAAGTTCCAGGGTACATATATATGAAAAAAC [XGTACX_site2408]", "gcPBM binding intensity (ln)": 6.85}, {"sequence": "TAATATATGTATTGCACACCTATAACCATTATTTCT [CACACA_site1498]", "gcPBM binding intensity (ln)": 10.5}, {"sequence": "ACAAATTTATACTTAAAACACACGTAATCATTTATA [CACACA_site1636]", "gcPBM binding intensity (ln)": 6.3}, {"sequence": "TGAATATTCCTATGCACACAAATTAAAATACATAAT [CACACA_site4403]", "gcPBM binding intensity (ln)": 9.91}, {"sequence": "TAAAATAATTTATGCATACACACATATATATATATA [CACACA_site4021]", "gcPBM binding intensity (ln)": 9.28}, {"sequence": "AAGAAGAAATGCTTTGCATGCAAATTTTATGCCAAC [TGCATGCA_site721]", "gcPBM binding intensity (ln)": 6.84}, {"sequence": "CAATTTTTTAAATGCACACAAAAGGAATAAATAAAT [CACACA_site544]", "gcPBM binding intensity (ln)": 10}, {"sequence": "AACAATTGGAATAACGCATGCATTTATAATATAGAA [TGCATGCA_site298]", "gcPBM binding intensity (ln)": 6.93}, {"sequence": "TCTCAAGTTGTTAAAAAATAAAAACAATAAATCTAA [CACACA_negctrl_site165]", "gcPBM binding intensity (ln)": 5.91}, {"sequence": "TACAAAAAAAAAAAATAGATAAAATAATAATCAAAT [TGCATGCA_negctrl_site524]", "gcPBM binding intensity (ln)": 6.09}, {"sequence": "ATATATTGAACATATTGTACATTTTGTTAATATTTT [XGTACX_site7622]", "gcPBM binding intensity (ln)": 6.35}, {"sequence": "TTTTATAAAATATAATATAATAATATATGTATAATA [CACACA_negctrl_site1788]", "gcPBM binding intensity (ln)": 6.27}, {"sequence": "ATATATCTACAAATATGTACACACACACATATATAT [XGTACX_site1075]", "gcPBM binding intensity (ln)": 6.9}, {"sequence": "TGTACAACAATTTTTGCACACACCAAAACATAAAAT [CACACA_site1598]", "gcPBM binding intensity (ln)": 10.1}, {"sequence": "AGAAAAGAAATTAAATGTACACAACTATAACCAAAT [XGTACX_site8084]", "gcPBM binding intensity (ln)": 7.29}, {"sequence": "AAAAAAAAAAAATAAAGTACTAAATAATACATTATA [XGTACX_site6203]", "gcPBM binding intensity (ln)": 5.87}, {"sequence": "AAAAAAAAAAAAAAAAAAAAAAAAATCACACATTGG [TGCATGCA_negctrl_site412]", "gcPBM binding intensity (ln)": 7.21}, {"sequence": "TTTTGGATGTATTATACATGCATATTATTATAATAT [TGCATGCA_site997]", "gcPBM binding intensity (ln)": 6.59}, {"sequence": "AAAAAAAATATCCGACGTACTATTTTCGTAGAAATA [XGTACX_site6292]", "gcPBM binding intensity (ln)": 6.08}, {"sequence": "ATCTGAAAAATTAATAGTACAATTAATAATTAAACC [XGTACX_site8523]", "gcPBM binding intensity (ln)": 6.72}, {"sequence": "AAACAAAAAAGAAGCACACATATATATATATATATG [CACACA_site2456]", "gcPBM binding intensity (ln)": 7.17}, {"sequence": "TATACGCATATATACACACACATATATATATATATA [CACACA_site3416]", "gcPBM binding intensity (ln)": 9.46}, {"sequence": "AACAAACAAATAGTTTATTTTGATTTTTTTAAAAAT [CACACA_negctrl_site693]", "gcPBM binding intensity (ln)": 5.86}, {"sequence": "ACAAATAAATATTCGCGTACTTATATAATATTACGA [XGTACX_site6428]", "gcPBM binding intensity (ln)": 6.23}, {"sequence": "TGTTAATTTCATTTTCTACACACCTATCCTTTTTTT [CACACA_site8157]", "gcPBM binding intensity (ln)": 6.61}, {"sequence": "GAACAAAAATACTTATGTACACATTAGCAAGGAAAA [XGTACX_site5622]", "gcPBM binding intensity (ln)": 6.54}, {"sequence": "ATTATGTTATTATTTTGTACACATAAATAATACGTT [XGTACX_site816]", "gcPBM binding intensity (ln)": 6.61}, {"sequence": "TGTTTCTTATTTTTTTCACACACTAATCATTTCAAA [CACACA_site8695]", "gcPBM binding intensity (ln)": 7.02}, {"sequence": "TCATATGTGAAACACACACACACACCCAAAAAAACA [CACACA_site3247]", "gcPBM binding intensity (ln)": 6.88}, {"sequence": "ATGTAGACTGAAACCACACACACATATATATATATA [CACACA_site606]", "gcPBM binding intensity (ln)": 9.33}, {"sequence": "GGATTACAAATAGGTTGTACGTTTTTTTTTTTTTCT [XGTACX_site3605]", "gcPBM binding intensity (ln)": 6.13}, {"sequence": "TTACATTGTAAAAAGTGTACATATAATTTAATTAAT [XGTACX_site1834]", "gcPBM binding intensity (ln)": 6.49}, {"sequence": "TCCGTATATTTATACGCATGCATTATGAACATTGTT [TGCATGCA_site613]", "gcPBM binding intensity (ln)": 6.5}, {"sequence": "AAATTTTTTTTTGTCATATGATGTTTGAACCCAAAT [CACACA_negctrl_site1659]", "gcPBM binding intensity (ln)": 6.57}, {"sequence": "AAAAAAAATAATTTGCGTACATAAAAATTTATAGGA [XGTACX_site3016]", "gcPBM binding intensity (ln)": 6.46}, {"sequence": "CATACATACATATATACACACATATATAATAATATA [CACACA_site2678]", "gcPBM binding intensity (ln)": 6.9}, {"sequence": "TACGAATTAAAAAAGAGTACAAATAAAATATCTACA [XGTACX_site7412]", "gcPBM binding intensity (ln)": 5.9}, {"sequence": "TTTTAAACACCAATCAAAAAAATATAAATATAAATA [TGCATGCA_negctrl_site552]", "gcPBM binding intensity (ln)": 6.36}, {"sequence": "AATTAGCTCAAAGGTTGTACAAATATATTTTAATGG [XGTACX_site2352]", "gcPBM binding intensity (ln)": 6.74}, {"sequence": "TCCACATTAATGTAATGTACAAAATTAGAAAATAAA [XGTACX_site6287]", "gcPBM binding intensity (ln)": 6.54}, {"sequence": "AATATAAATACTCCTACACACATATAAATATAAATA [CACACA_site7419]", "gcPBM binding intensity (ln)": 6.79}]}]}
